From the antibiotic and cytotoxicity screens of Wong et al. (2023)
Some of the results follow.

Legend:
HSkMC = human skeletal muscle cells; test: cytotoxicity call (relative viability < 0.9); settings: 10 µM
HepG2 = test: cytotoxicity call (relative viability < 0.9); settings: 10 µM
S. aureus RN4220 = test: growth inhibition call (relative growth <= 0.2); settings: 50 µM

Compound | cytotoxicity call (HSkMC) | cytotoxicity call (HepG2) | growth inhibition call (S. aureus RN4220)
COc1ccc(C#Cc2ccc3c(c2)O[C@@H](CN(C)C(C)=O)[C@@H](C)CN([C@@H](C)CO)S3(=O)=O)cc1 | inactive | inactive | inactive
C[C@H](CO)N1C[C@H](C)[C@@H](CN(C)C(=O)Nc2ccc(C(F)(F)F)cc2)Oc2ccc(NC(=O)Nc3ccc4c(c3)OCO4)cc2C1=O | inactive | inactive | inactive
COc1ccc(C(=O)Nc2ccc3c(c2)C(=O)N(C)[C@H]2CC[C@@H](CC(=O)NCC4CC4)O[C@@H]2CO3)cc1 | inactive | inactive | inactive
C[C@@H]1CCCCO[C@H](CN(C)C(=O)CCCN(C)C)[C@@H](C)CN([C@H](C)CO)C(=O)c2cc(NC(=O)Nc3cccc4ccccc34)ccc2O1 | inactive | inactive | inactive
Cc1noc(C)c1S(=O)(=O)N(C)C[C@@H]1Oc2c(NC(=O)C3CCOCC3)cccc2C(=O)N([C@H](C)CO)C[C@@H]1C | inactive | inactive | inactive
Cc1noc(C)c1NC(=O)N(C)C[C@@H]1Oc2ccc(NC(=O)Nc3ccc(C(F)(F)F)cc3)cc2C(=O)N([C@@H](C)CO)C[C@H]1C | inactive | inactive | inactive
O=c1[nH]cc(COCc2ccccc2)c(=O)[nH]1 | inactive | inactive | inactive
Clc1ccc(Sc2ccc(-c3ccccn3)s2)cc1 | inactive | inactive | inactive
COCCCNC(=O)[C@@]1(Sc2ccc(C)cc2)CC(=O)N(Cc2ccccc2C(F)(F)F)[C@@H]1c1ccc(CO)cc1I | inactive | inactive | inactive
Cc1ccc(-c2ccc3c(c2)O[C@@H](CN(C)C(=O)Nc2ccc(C(F)(F)F)cc2)[C@H](C)CN([C@H](C)CO)S3(=O)=O)cc1 | active | inactive | inactive
CNc1[nH]cnc(=S)c1N | inactive | inactive | inactive
CNC[C@H]1OCCCC[C@@H](C)Oc2ccc(NC(=O)Nc3cccc4ccccc34)cc2C(=O)N([C@@H](C)CO)C[C@@H]1C | inactive | inactive | inactive
C[C@@H]1CCCCO[C@@H](CN(C)C(=O)Nc2ccc3c(c2)OCO3)[C@H](C)CN([C@@H](C)CO)C(=O)c2cc(NC(=O)Nc3ccccc3)ccc2O1 | inactive | inactive | inactive
C[C@@H]1CCCCO[C@@H](CN(C)C(=O)c2ccccc2)[C@@H](C)CN([C@@H](C)CO)C(=O)c2cc(NC(=O)Nc3ccc4c(c3)OCO4)ccc2O1 | inactive | inactive | inactive
C[C@@H]1CN([C@H](C)CO)C(=O)Cc2cc(NC(=O)CCC(F)(F)F)ccc2O[C@H]1CN(C)Cc1ccc(C(F)(F)F)cc1 | inactive | active | inactive
C[C@H]1CN([C@@H](C)CO)C(=O)c2cccc(NS(=O)(=O)c3cn(C)cn3)c2O[C@@H]1CN(C)S(=O)(=O)c1ccc(Cl)cc1 | inactive | inactive | inactive
COc1ccc(S(=O)(=O)Nc2ccc3c(c2)CC(=O)N([C@H](C)CO)C[C@@H](C)[C@H](CN(C)S(=O)(=O)c2c(C)noc2C)O3)cc1 | inactive | inactive | inactive
C[C@H](CO)N1C[C@H](C)[C@H](CN(C)S(=O)(=O)c2cn(C)cn2)Oc2cc(C3=CCCC3)ccc2S1(=O)=O | inactive | inactive | inactive
Cc1noc(C)c1NC(=O)N(C)C[C@H]1Oc2ccc(NC(=O)c3ccncc3)cc2C(=O)N([C@H](C)CO)C[C@H]1C | inactive | inactive | inactive
O=C(C[C@H]1CC[C@H]2[C@@H](COC[C@@H](O)CN2S(=O)(=O)c2ccccc2)O1)NCc1ccc(-c2ccccc2)cc1 | inactive | inactive | inactive
C[C@@H]1CN([C@H](C)CO)C(=O)CCCn2cc(nn2)CO[C@H]1CN(C)C(=O)CCCN(C)C | inactive | inactive | inactive
C[C@@H]1CCCCO[C@@H](CN(C)S(=O)(=O)c2cccs2)[C@@H](C)CN([C@H](C)CO)C(=O)c2cc(NC(=O)Cc3ccccc3)ccc2O1 | inactive | inactive | inactive
C[C@H](CO)N1C[C@H](C)[C@H](CN(C)S(=O)(=O)c2cccs2)Oc2ccc(NS(=O)(=O)c3cn(C)cn3)cc2CC1=O | inactive | inactive | inactive
C[C@@H]1CN([C@H](C)CO)C(=O)Cc2cc(NC(=O)Nc3ccc(C(F)(F)F)cc3)ccc2O[C@@H]1CN(C)Cc1ccc(C(=O)Nc2ccccc2N)cc1 | inactive | active | inactive
COc1ccc(C#Cc2ccc3c(c2)[C@]2(C(=O)N3)[C@H](c3ccccc3OCCO)N3[C@H](c4ccccc4)[C@H](c4ccccc4)OC(=O)[C@H]3[C@@H]2C(=O)N2CCN(c3ncccn3)CC2)cc1 | inactive | active | inactive
COc1ccc(S(=O)(=O)N(C)C[C@H]2OCCCC[C@@H](C)Oc3ccc(NC(=O)Nc4ccc(F)cc4)cc3C(=O)N([C@H](C)CO)C[C@@H]2C)cc1 | inactive | active | inactive
COc1ccc(CN(C)C[C@@H]2Oc3c(NC(=O)C4CCOCC4)cccc3C(=O)N([C@@H](C)CO)C[C@H]2C)cc1 | inactive | inactive | inactive

Compound | cytotoxicity call (HSkMC) | cytotoxicity call (HepG2) | growth inhibition call (S. aureus RN4220)
O=C(C[C@@H]1C=C[C@H](NC(=O)c2cnccn2)[C@@H](CO)O1)NCc1ccccc1F | inactive | inactive | inactive
COc1ccc(NC(=O)Nc2ccc3c(c2)C(=O)N([C@H](C)CO)C[C@H](C)[C@@H](CN(C)CC2CCCCC2)OCCCC[C@@H](C)O3)cc1 | inactive | inactive | inactive
C[C@@H]1CN([C@@H](C)CO)C(=O)c2cc(C#CC3(O)CCCC3)cnc2O[C@H]1CN(C)S(C)(=O)=O | inactive | inactive | inactive
C[C@@H]1CCCCO[C@H](CN(C)S(=O)(=O)c2ccc(F)cc2)[C@H](C)CN([C@@H](C)CO)C(=O)c2cc(NS(=O)(=O)c3ccc(Cl)cc3)ccc2O1 | inactive | active | inactive
C[C@@H]1CN([C@@H](C)CO)C(=O)c2cc(NC(=O)Nc3ccccc3)ccc2O[C@@H](C)CCCCO[C@H]1CN(C)C(=O)c1ccccc1 | inactive | inactive | inactive
C[C@@H]1CN([C@H](C)CO)C(=O)c2cccc(NS(=O)(=O)c3ccccc3)c2O[C@@H]1CN(C)S(=O)(=O)c1ccc(F)cc1 | inactive | inactive | inactive
C[C@@H]1CCCCO[C@H](CN(C)Cc2ccncc2)[C@@H](C)CN([C@H](C)CO)C(=O)c2cc(NC(=O)CCC(F)(F)F)ccc2O1 | inactive | inactive | inactive
CCOc1nn(CC)cc1C(=O)O | inactive | inactive | inactive
O=C(O[C@@H]1Cc2c(O)cc(O)cc2O[C@@H]1c1cc(O)c(O)c2c(=O)c(O)cc([C@H]3Oc4cc(O)cc(O)c4C[C@H]3O)c-2c1)c1cc(O)c(O)c(O)c1 | inactive | active | inactive
O=C(/C=C/c1ccc(O)c(O)c1)O[C@@H]1C[C@@](O)(C(=O)O)C[C@@H](O)[C@@H]1O | inactive | active | inactive
C[C@H]1CN([C@@H](C)CO)C(=O)c2cccc(NS(=O)(=O)c3ccccc3)c2O[C@@H]1CN(C)Cc1ccc(-c2ccccc2)cc1 | inactive | inactive | inactive
CN(C)CC(=O)N[C@@H]1CC[C@@H](CC(=O)O)O[C@H]1CO | inactive | inactive | inactive
C[C@H](N)CCC(=O)NCS(=O)(=O)O | inactive | inactive | inactive
C[C@H](CO)N1C[C@H](C)[C@H](CN(C)C(=O)Cc2ccncc2)Oc2cc(-c3cncnc3)ccc2S1(=O)=O | inactive | inactive | inactive
C[C@H]1CN([C@@H](C)CO)C(=O)Cc2cc(NC(=O)Nc3ccc4c(c3)OCO4)ccc2O[C@H]1CN(C)S(C)(=O)=O | inactive | inactive | inactive
CCNC(=O)C[C@H]1C=C[C@H](NC(=O)C2CCOCC2)[C@@H](CO)O1 | inactive | inactive | inactive
C[C@@H]1CCCCO[C@H](CN(C)C(=O)Nc2ccc(F)cc2)[C@@H](C)CN([C@H](C)CO)C(=O)c2cc(NC(=O)Nc3ccccc3)ccc2O1 | inactive | inactive | inactive
CCS(=O)(=O)N1C[C@]2(CN(C2)S(=O)(=O)c2cn(cn2)C)c2c(n(c3cc(ccc23)OC)C)[C@H]1CO | inactive | inactive | inactive
C[C@H]1CCCCO[C@H](CN(C)C(=O)Nc2cccc3ccccc23)[C@@H](C)CN([C@@H](C)CO)C(=O)c2cc(NC(=O)Nc3cccc4ccccc34)ccc2O1 | inactive | inactive | inactive
CCOC(=O)c1cnn2c(=O)cc(C)[nH]c12 | inactive | inactive | inactive
CCc1nc2ccc(C(=O)NCCc3ccccn3)cn2c1N(CC)Cc1cccc(Br)c1 | inactive | inactive | inactive
Cc1ccc(S(=O)(=O)N(C)C[C@H]2Oc3ccc(NS(=O)(=O)c4ccccc4)cc3C(=O)N([C@@H](C)CO)C[C@@H]2C)cc1 | inactive | inactive | inactive
C[C@H](CO)N1C[C@H](C)[C@H](CN(C)C(=O)Cc2ccncc2)Oc2cc(C#CC3CCCCC3)ccc2S1(=O)=O | inactive | inactive | inactive
CC[C@@H]1OC(=O)C[C@@H](O)[C@H](C)[C@@H](O[C@@H]2O[C@H](C)[C@@H](O)[C@H](N(C)C)[C@H]2O)[C@@H](CCN2C[C@H](C)C[C@H](C)C2)C[C@@H](C)C(=O)/C=C/C(C)=C\[C@@H]1CO[C@@H]1O[C@H](C)[C@@H](O)[C@@H](OC)[C@H]1OC | inactive | inactive | active
COC(=O)c1ccc([C@H](c2c(N)n(CC(C)C)c(=O)[nH]c2=O)N2CCOCC2)cc1 | inactive | inactive | inactive
Cc1noc(C)c1NC(=O)Nc1ccc2c(c1)CC(=O)N([C@H](C)CO)C[C@H](C)[C@@H](CN(C)CC1CC1)O2 | inactive | inactive | inactive
